Experimental findings from patent publication US8633183B2 (priority 2010, dated 2014) are described below.

This assay concerns BT474. Description: cells. The following applies: Homo sapiens, BT-474, read-out: EC50 BT474.

In the case of `CCc1ncnc(-c2ccc(C(=O)N3CCC(N4CCN(C)CC4)CC3)c(F)c2)c1C#Cc1ccc(NC)nc1` [Example E-183], the EC50 was determined as 104 nM.
The result for `CCc1ncnc(-c2ccc(C(=O)N3CCC(C(C)(C)O)CC3)c(Cl)c2)c1C#Cc1ccc(NC)nc1` [Example E-184] reads 39.8 nM.
As to `CCc1ncnc(-c2ccc(C(=O)N3CCC(N4CCOCC4)CC3)c(Cl)c2)c1C#Cc1ccc(NC)nc1` [Example E-185], the half-maximal effective concentration (EC50) worked out at 25.9 nM.
For `CCc1ncnc(-c2ccc(C(=O)N3CCN(C4CCOCC4)CC3)c(Cl)c2)c1C#Cc1ccc(NC)nc1` [Example E-186], the EC50 came out at 22.4 nM.
On to `CCc1ncnc(-c2ccc(C(=O)N3CCN(CC(F)F)CC3)c(Cl)c2)c1C#Cc1ccc(NC)nc1` [Example E-187], for which the EC50 was found to be 29.8 nM.
The result for `CCc1ncnc(-c2ccc(C(=O)N3CC[C@@H](N(C)C)C3)c(Cl)c2)c1C#Cc1ccc(NC)nc1` [Example E-188] reads 77.5 nM; that for `CCc1ncnc(-c2ccc(C(=O)N3CCN(CC)CC3)c(Cl)c2)c1C#Cc1ccc(NC)nc1` [Example E-189], 44.8 nM.
On to `CCc1ncnc(-c2ccc(C(=O)N3CC[C@H](N(C)C)C3)c(Cl)c2)c1C#Cc1ccc(NC)nc1` [Example E-190], for which the EC50 was found to be 82.4 nM.
The result for `CCc1ncnc(-c2ccc(C(=O)N3CCN(C)CC3)c(Cl)c2)c1C#Cc1ccc(NC)nc1` [Example E-191] reads 45 nM; that for `CCc1ncnc(-c2ccc(C(=O)N3CCC(N4CCN(C)CC4)CC3)c(Cl)c2)c1C#Cc1ccc(NC)nc1` [Example E-192], 52.7 nM; that for `CCc1ncnc(-c2cc(Cl)c(C(=O)N3CCN4CCC[C@H]4C3)c(Cl)c2)c1C#Cc1ccc(N)nc1` [Example E-194], 25.1 nM.
With `CCc1ncnc(-c2cc(Cl)c(C(=O)N3CC[C@@H](N(C)C)C3)c(Cl)c2)c1C#Cc1ccc(N)nc1` [Example E-196], the EC50 was found to be 45.6 nM.
Regarding `CCc1ncnc(-c2cc(Cl)c(C(=O)N3CCN(C)CC3)c(Cl)c2)c1C#Cc1ccc(N)nc1` [Example E-197], the EC50 is 16.4 nM.
As to `CCc1ncnc(-c2cc(Cl)c(C(=O)N3CCN(CC)CC3)c(Cl)c2)c1C#Cc1ccc(N)nc1` [Example E-198], the 50% effective concentration (EC50) was 9.84 nM.
Take `CCc1ncnc(-c2cc(Cl)c(C(=O)N3CCN(CC(C)(C)O)CC3)c(Cl)c2)c1C#Cc1ccc(N)nc1` [Example E-199]: the EC50 was 9.81 nM.
The result for `CCc1ncnc(-c2cc(Cl)c(C(=O)N3CCC(C(C)O)CC3)c(Cl)c2)c1C#Cc1ccc(N)nc1` (stereo not shown) [Example E-200] reads 9.82 nM.
Turning to `CCc1ncnc(-c2cc(Cl)c(C(=O)N3CCC(C(C)(C)O)CC3)c(Cl)c2)c1C#Cc1ccc(N)nc1` [Example E-201], the EC50 amounted to 9.77 nM.
For `CCc1ncnc(-c2cc(Cl)c(C(=O)N3CCN(CC(F)F)CC3)c(Cl)c2)c1C#Cc1ccc(N)nc1` [Example E-202], the EC50 was 14.2 nM.
`CCc1ncnc(-c2cc(Cl)c(C(=O)N3CCC(C)(O)CC3)c(Cl)c2)c1C#Cc1ccc(N)nc1` [Example E-203]: the concentration giving a half-maximal response (EC50) was found to be 14.9 nM.
On to `CCc1ncnc(-c2cc(Cl)c(C(=O)N3CCC(CO)CC3)c(Cl)c2)c1C#Cc1ccc(N)nc1` [Example E-205], for which the 50% effective concentration (EC50) is 20.1 nM.
With `CCc1ncnc(-c2cc(Cl)c(C(=O)N3CCN(CCC#N)CC3)c(Cl)c2)c1C#Cc1ccc(N)nc1` [Example E-206], the EC50 is 12.1 nM.
With `CCc1ncnc(-c2cc(F)c(C(=O)N3CCN4CCC[C@H]4C3)c(F)c2)c1C#Cc1ccc(NC)nc1` [Example E-207], the EC50 was determined as 58.7 nM.
As to `CCc1ncnc(-c2cc(F)c(C(=O)N3CCN(C)C(=O)C3)c(F)c2)c1C#Cc1ccc(NC)nc1` [Example E-208], the EC50 was found to be 40.4 nM.
For the molecule `CCc1ncnc(-c2cc(F)c(C(=O)N3CC[C@@H](N(C)C)C3)c(F)c2)c1C#Cc1ccc(NC)nc1` [Example E-209], the EC50 came to 80.7 nM.
For the molecule `CCc1ncnc(-c2cc(F)c(C(=O)N3CCN(C)CC3)c(F)c2)c1C#Cc1ccc(NC)nc1` [Example E-210], the concentration for a half-maximal effect (EC50) is 59.4 nM.
With `CCc1ncnc(-c2cc(F)c(C(=O)N3CCN(CC)CC3)c(F)c2)c1C#Cc1ccc(NC)nc1` [Example E-211], the EC50 amounted to 96.7 nM.
In the case of `CCc1ncnc(-c2cc(F)c(C(=O)N3CCN(CC(C)(C)O)CC3)c(F)c2)c1C#Cc1ccc(NC)nc1` [Example E-212], the EC50 was 72.4 nM.
Take `CCc1ncnc(-c2cc(F)c(C(=O)N3CCC(C(C)O)CC3)c(F)c2)c1C#Cc1ccc(NC)nc1` (stereo not shown) [Example E-213]: the half-maximal effective concentration (EC50) came to 55.1 nM.
For the molecule `CCc1ncnc(-c2cc(F)c(C(=O)N3CCC(C(C)(C)O)CC3)c(F)c2)c1C#Cc1ccc(NC)nc1` [Example E-214], the concentration giving a half-maximal response (EC50) came out at 84.1 nM.
Regarding `CCc1ncnc(-c2cc(F)c(C(=O)N3CCN(C4CCOCC4)CC3)c(F)c2)c1C#Cc1ccc(NC)nc1` [Example E-216], the EC50 was determined as 38.3 nM.
For the molecule `CCc1ncnc(-c2cc(F)c(C(=O)N3CCN(CC(F)F)CC3)c(F)c2)c1C#Cc1ccc(NC)nc1` [Example E-217], the EC50 turned out to be 48 nM.
The result for `CCc1ncnc(-c2cc(F)c(C(=O)N3CCC(C)(O)CC3)c(F)c2)c1C#Cc1ccc(NC)nc1` [Example E-218] reads 57.4 nM; that for `CCc1ncnc(-c2cc(F)c(C(=O)N3CCN(C=O)CC3)c(F)c2)c1C#Cc1ccc(NC)nc1` [Example E-219], 37.3 nM.
For `CCc1ncnc(-c2cc(F)c(C(=O)N3CCC(CO)CC3)c(F)c2)c1C#Cc1ccc(NC)nc1` [Example E-220] the value was 33.9 nM; for `CCc1ncnc(-c2cc(F)c(C(=O)N3CCN(CCC#N)CC3)c(F)c2)c1C#Cc1ccc(NC)nc1` [Example E-221], 33.7 nM.
Turning to `CCc1ncnc(-c2ccc(C(=O)N3CCN4CCC[C@H]4C3)c(OC(F)(F)F)c2)c1C#Cc1ccc(N)nc1` [Example E-223], the EC50 came to 66.4 nM.
For the molecule `CCc1ncnc(-c2ccc(C(=O)N3CCN(C)CC3)c(C(F)(F)F)c2)c1C#Cc1ccc(N)nc1` [Example E-229], the concentration for a half-maximal effect (EC50) was found to be 48.6 nM.
Take `CCc1ncnc(-c2ccc(C(=O)N3CCN(C(C)C)CC3)c(C(F)(F)F)c2)c1C#Cc1ccc(N)nc1` [Example E-230]: the EC50 came to 45.3 nM.
`CCc1ncnc(-c2cc(F)c(C(=O)N3CCN(C)CC3)c(Cl)c2)c1C#Cc1ccc(N)nc1` [Example E-233]: the EC50 was determined as 23 nM.
Take `CCc1ncnc(-c2cc(F)c(C(=O)N3CCN(C(C)C)CC3)c(Cl)c2)c1C#Cc1ccc(N)nc1` [Example E-234]: the EC50 was found to be 21.7 nM.
`CCc1ncnc(-c2cc(F)c(C(=O)N3CCN(CC)CC3)c(Cl)c2)c1C#Cc1ccc(N)nc1` [Example E-235]: the EC50 came to 19.2 nM.
As to `CCc1ncnc(-c2cc(F)c(C(=O)N3CCC(N4CCOCC4)CC3)c(Cl)c2)c1C#Cc1ccc(N)nc1` [Example E-236], the EC50 turned out to be 18.8 nM.
In the case of `CCc1ncnc(-c2cc(F)c(C(=O)N3CCC(C(C)(C)O)CC3)c(Cl)c2)c1C#Cc1ccc(N)nc1` [Example E-237], the EC50 is 20.6 nM.
For `CCc1ncnc(-c2cc(F)c(C(=O)N3CCN4CCC[C@H]4C3)c(Cl)c2)c1C#Cc1ccc(N)nc1` [Example E-238] the value was 19.1 nM; for `CCc1ncnc(-c2cc(F)c(C(=O)N3CCN(C)C(=O)C3)c(Cl)c2)c1C#Cc1ccc(N)nc1` [Example E-239], 15.2 nM; for `CCc1ncnc(-c2cc(F)c(C(=O)N3CCN(CC(C)(C)O)CC3)c(Cl)c2)c1C#Cc1ccc(N)nc1` [Example E-240], 16.8 nM.
For `CCc1ncnc(-c2cc(F)c(C(=O)N3CCC(C(C)O)CC3)c(Cl)c2)c1C#Cc1ccc(N)nc1` (stereo not shown) [Example E-241] the value was 16.6 nM; for `CCc1ncnc(-c2cc(F)c(C(=O)N3CCC(CO)CC3)c(Cl)c2)c1C#Cc1ccc(N)nc1` [Example E-242], 18.4 nM.
Regarding `CCc1ncnc(-c2cc(F)c(C(=O)N3CCN(CCC#N)CC3)c(Cl)c2)c1C#Cc1ccc(N)nc1` [Example E-243], the EC50 is 29.8 nM.
For `CCc1ncnc(-c2ccc(C(=O)N3CCN(CCNS(C)(=O)=O)CC3)c(F)c2)c1C#Cc1ccc(N)nc1` [Example E-246], the 50% effective concentration (EC50) amounted to 61.4 nM.
With `CCc1ncnc(-c2ccc(C(=O)N3CCn4c(C)cnc4C3)c(F)c2)c1C#Cc1ccc(N)nc1` [Example E-247], the EC50 came to 19.6 nM.
For `CCc1ncnc(-c2ccc(C(=O)N3CCn4cnnc4C3)c(F)c2)c1C#Cc1ccc(N)nc1` [Example E-248] the value was 56.1 nM.
Consider `CCc1ncnc(-c2ccc(C(=O)N3CCn4ccnc4C3)c(F)c2)c1C#Cc1ccc(N)nc1` [Example E-249], for which the half-maximal effective concentration (EC50) amounted to 22.8 nM.
Consider `CCc1ncnc(-c2ccc(C(=O)N3CCN(CCCS(C)(=O)=O)CC3)c(F)c2)c1C#Cc1ccc(N)nc1` [Example E-250], for which the EC50 came to 37.9 nM.
As to `CCc1ncnc(-c2ccc(C(=O)N3CCC4(CC3)CNC4)c(Cl)c2)c1C#Cc1ccc(N)nc1` [Example E-251], the EC50 was found to be 588 nM.
Take `CCc1ncnc(-c2ccc(C(=O)N3CCN(C4CCC4)CC3)c(Cl)c2)c1C#Cc1ccc(N)nc1` [Example E-252]: the EC50 came to 15.2 nM.
With `CCc1ncnc(-c2ccc(C(=O)N3CCN(CCNS(C)(=O)=O)CC3)c(Cl)c2)c1C#Cc1ccc(N)nc1` [Example E-253], the concentration for a half-maximal effect (EC50) stood at 64.6 nM.
Consider `CCc1ncnc(-c2ccc(C(=O)N3CCn4c(C)cnc4C3)c(Cl)c2)c1C#Cc1ccc(N)nc1` [Example E-254], for which the 50% effective concentration (EC50) came out at 16.6 nM.
For `CCc1ncnc(-c2ccc(C(=O)N3CCn4cnnc4C3)c(Cl)c2)c1C#Cc1ccc(N)nc1` [Example E-255], the concentration giving a half-maximal response (EC50) was found to be 43 nM.
With `CCc1ncnc(-c2ccc(C(=O)N3CCn4ccnc4C3)c(Cl)c2)c1C#Cc1ccc(N)nc1` [Example E-256], the concentration for a half-maximal effect (EC50) came out at 27.9 nM.
The result for `CCc1ncnc(-c2ccc(C(=O)N3CCN(CCCS(C)(=O)=O)CC3)c(Cl)c2)c1C#Cc1ccc(N)nc1` [Example E-257] reads 44 nM; that for `CCNc1ccc(C#Cc2c(CC)ncnc2-c2ccc(C(=O)N3CCN(CCCS(C)(=O)=O)CC3)c(F)c2)cn1` [Example E-258], 13.1 nM; that for `CCNc1ccc(C#Cc2c(CC)ncnc2-c2ccc(C(=O)N3CCC(N4CCOCC4)CC3)c(F)c2)cn1` [Example E-259], 13.9 nM.
As for `CCNc1ccc(C#Cc2c(CC)ncnc2-c2ccc(C(=O)N3CCn4ccnc4C3)c(F)c2)cn1` [Example E-260], the concentration for a half-maximal effect (EC50) was determined as 22.9 nM.

For orientation: EC50 means the midpoint of the concentration-response curve.
